Values marked as one replicate rest on one cluster of the flow cell; about a third of the high ones do not repeat.
Test system: ATP
Experiment: switch fluorescence ratio, 500 uM ATP over buffer (Cy3 cluster intensity, sum of 5 cycles each) (fold (ratio)); higher = stronger signal-on switching upon ATP binding; sequences stand for … in TCGTCGGCAGCGTCAGATGTGTATAAGAGACAGTTTTTTTTTTTTTTTTTTTTTTTTT…TC
Details: aptamer strand: ATP DNA aptamer (quencher-CACCTGGGGGAGTATTGCGGAGGAAGG + anchor), 100 nM annealed; ATP concentration: 500 uM; one replicate
Procedure, shortened: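 For every switch-domain sequence, the fluorescence ratio is the mean of per-cluster values, each being summed target-cycle Cy3 intensity over summed buffer-cycle Cy3 intensity. Clusters outside 100-1000 RFU were excluded. On a modified Illumina MiSeq flow-cell, the Cy3-labelled switching-strand clusters were annealed to 100 nM quencher-labelled ATP aptamer, imaged in selection buffer and then after 15 min with 500 uM ATP at 22 °C. Five such cycles were run, with NaOH stripping and re-annealing between them.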
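Also: ATP exposure 15 min at 22 °C before imaging.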

## GCCCTATAA
  switch fluorescence ratio: 0.958

## TTCATGGCAG
  switch fluorescence ratio: 1.04

## GACAACGGG
  switch fluorescence ratio: 1.02

## TTAAAATAT
  switch fluorescence ratio: 0.982

## CGATTGACGA
  switch fluorescence ratio: 1.01

## CCGACCCGCG
  switch fluorescence ratio: 2.14

## CGAATTGGGA
  switch fluorescence ratio: 1.03

## GCCTTTATT
  switch fluorescence ratio: 1.01

## TTTGCATGTG
  switch fluorescence ratio: 1.03

## AAATACGAGC
  switch fluorescence ratio: 1.05

## AAGCTAGTTG
  switch fluorescence ratio: 0.963

## GACGTTTATT
  switch fluorescence ratio: 1

## ATAGAAGCTA
  switch fluorescence ratio: 1

## GGAGGGTATA
  switch fluorescence ratio: 1.02

## TCCAGTTTGT
  switch fluorescence ratio: 0.999

## TAAGAATAGA
  switch fluorescence ratio: 0.984

## ACTGTGTCGG
  switch fluorescence ratio: 1

## ATGGGTTCG
  switch fluorescence ratio: 1

## CCGTAGGCAC
  switch fluorescence ratio: 2.87

## ATATCAAGCG
  switch fluorescence ratio: 0.986

## GACACTTTAA
  switch fluorescence ratio: 1.09

## TTTACTTGAA
  switch fluorescence ratio: 0.966

## TTGTGAGAA
  switch fluorescence ratio: 1.02

## CAAACCGATT
  switch fluorescence ratio: 1.05

## CAGTGGGCGA
  switch fluorescence ratio: 1.04

## GATACCATGA
  switch fluorescence ratio: 1.01

## CAGTTGTGTT
  switch fluorescence ratio: 0.997

## TTGTGAAGTC
  switch fluorescence ratio: 0.978

## CTCTCACGGC
  switch fluorescence ratio: 1.31

## CCAGCGGCCG
  switch fluorescence ratio: 0.965

## TCATTACTAT
  switch fluorescence ratio: 0.987

## AGTTATTCAT
  switch fluorescence ratio: 0.993

## AGCTGGGAAA
  switch fluorescence ratio: 0.952

## TCCCCATGGG
  switch fluorescence ratio: 1.11

## ACTATATCAG
  switch fluorescence ratio: 1.08

## CGTGTCTCGC
  switch fluorescence ratio: 0.972

## GGCTGGTACA
  switch fluorescence ratio: 0.995

## AACGCACCGG
  switch fluorescence ratio: 1.49

## ACCGCGCGT
  switch fluorescence ratio: 1.02

## AGTGAACGGA
  switch fluorescence ratio: 1.01

## AAAGTTGTTC
  switch fluorescence ratio: 1.05

## GTTTTGGTTC
  switch fluorescence ratio: 0.989

## GCTTATATGA
  switch fluorescence ratio: 1.01

## TTAGCTATCC
  switch fluorescence ratio: 3.51

## GGGTTTAGGA
  switch fluorescence ratio: 1.04

## GGTAGTAGCG
  switch fluorescence ratio: 1.06

## GTTCGAAAAG
  switch fluorescence ratio: 0.968

## AGGACTATTT
  switch fluorescence ratio: 0.967

## TGAAGTCCGG
  switch fluorescence ratio: 0.989

## AGGCGACAGG
  switch fluorescence ratio: 1

## CTCGTTATC
  switch fluorescence ratio: 1.14

## CCAATGGGGA
  switch fluorescence ratio: 1

## CAGCGTCTTC
  switch fluorescence ratio: 0.947

## AGCCCTGGGT
  switch fluorescence ratio: 0.978

## GTCATTTCGA
  switch fluorescence ratio: 0.986

## CAATCTCCGA
  switch fluorescence ratio: 1.06

## GAAACTAGG
  switch fluorescence ratio: 0.981

## CTTCAAGGGG
  switch fluorescence ratio: 1.03

## GGGGAGCACA
  switch fluorescence ratio: 1.01

## TTCGTGGATT
  switch fluorescence ratio: 1.03

## TAATCCAAGC
  switch fluorescence ratio: 1.01

## AATGCCTTGG
  switch fluorescence ratio: 1.03

## TAGGGTCAAT
  switch fluorescence ratio: 1.01

## TTGGATATCC
  switch fluorescence ratio: 0.952

## GGGTCGTTTG
  switch fluorescence ratio: 0.999

## ATAACTGGT
  switch fluorescence ratio: 0.995

## CTATGCTCGC
  switch fluorescence ratio: 1.05

## GCCATGAGGG
  switch fluorescence ratio: 1.03

## TGGTGCTGCC
  switch fluorescence ratio: 1.03

## GCCGCGAAAA
  switch fluorescence ratio: 1.04

## TTGAGTCTTT
  switch fluorescence ratio: 1.03

## AAAGGTCTCA
  switch fluorescence ratio: 0.945

## TGTGACGGTG
  switch fluorescence ratio: 0.988

## AGCCCGATGG
  switch fluorescence ratio: 1.01

## GAAAATACCC
  switch fluorescence ratio: 0.969

## CGGATACTAT
  switch fluorescence ratio: 1.05

## CTGCGTATT
  switch fluorescence ratio: 1.05

## TAGTACCGCC
  switch fluorescence ratio: 1.18

## GGGCCACATT
  switch fluorescence ratio: 1.02

## CGGCGACTCG
  switch fluorescence ratio: 0.984

## TAGTGCTAAG
  switch fluorescence ratio: 1.01

## TCCTTGTTCT
  switch fluorescence ratio: 0.992

## CGATTGCAGC
  switch fluorescence ratio: 1.42

## ATAGGCTTTA
  switch fluorescence ratio: 0.979

## GGTATGAATT
  switch fluorescence ratio: 1.03

## GCTCGGCGCG
  switch fluorescence ratio: 0.998

## GCTTGGCGCC
  switch fluorescence ratio: 0.998

## TGGTCTCACC
  switch fluorescence ratio: 1.01

## CCCCACACGG
  switch fluorescence ratio: 1.81

## GGCTGAACAA
  switch fluorescence ratio: 1.02

## GTGGATTCGA
  switch fluorescence ratio: 1.02

## AGCCATGTAA
  switch fluorescence ratio: 1.01

## CCGTGATGCG
  switch fluorescence ratio: 1.18

## CCTACGGGGT
  switch fluorescence ratio: 1.81

## AAGGGCTGCC
  switch fluorescence ratio: 0.999

## AACACTATTA
  switch fluorescence ratio: 0.999

## TGAGAATGT
  switch fluorescence ratio: 1.03

## TACTCACGGA
  switch fluorescence ratio: 1.36

## GCTTCTATGT
  switch fluorescence ratio: 1

## CCGATGGATG
  switch fluorescence ratio: 1.26

## TTCTTGCGTT
  switch fluorescence ratio: 0.972

## GAGAGTCTTA
  switch fluorescence ratio: 0.938

## GTGGCTTCGG
  switch fluorescence ratio: 0.995

## AAGGAAATTG
  switch fluorescence ratio: 1.01

## TGTAGGCTAC
  switch fluorescence ratio: 1.05

## ATGTAATCC
  switch fluorescence ratio: 1.02

## ACGGACTTAG
  switch fluorescence ratio: 1.13

## CGGTTTAAAT
  switch fluorescence ratio: 0.995

## GGTCAAGTCG
  switch fluorescence ratio: 0.955

## CTTCCCGATT
  switch fluorescence ratio: 0.992

## TAAGGCATCG
  switch fluorescence ratio: 0.966

## AGTCTTTATT
  switch fluorescence ratio: 0.941

## CGGAAACTAA
  switch fluorescence ratio: 0.988

## GAAAGGTCTG
  switch fluorescence ratio: 1.02

## CCCAAAGAGT
  switch fluorescence ratio: 1.04

## CTCCTCAGTC
  switch fluorescence ratio: 1.73

## GAAGGTAGTT
  switch fluorescence ratio: 1.01

## AGCAAAAGGG
  switch fluorescence ratio: 1.01

## CGCATCCCAA
  switch fluorescence ratio: 1.54

## GCTACGAGAT
  switch fluorescence ratio: 1.27

## CGATCTTGAA
  switch fluorescence ratio: 0.983

## CAGTATCCGA
  switch fluorescence ratio: 1.01

## GAGATCAAAA
  switch fluorescence ratio: 1.05

## GGGAGATGGT
  switch fluorescence ratio: 0.96

## CTGATTAAG
  switch fluorescence ratio: 1.01

## CTTGTATGGC
  switch fluorescence ratio: 0.993

## ATAGCATTTC
  switch fluorescence ratio: 1.38

## ACGAACTCCA
  switch fluorescence ratio: 1.31

## TCCTAAATCT
  switch fluorescence ratio: 1.08

## TAATTGATAT
  switch fluorescence ratio: 0.938

## GGAGCCCATT
  switch fluorescence ratio: 0.982

## GAAATTTTCA
  switch fluorescence ratio: 1.03

## TCTCAGTACG
  switch fluorescence ratio: 1.04

## GTCCACAGTG
  switch fluorescence ratio: 1.6

## TTCATTTAAA
  switch fluorescence ratio: 0.979

## TATTATAGA
  switch fluorescence ratio: 1.01

## GTGGTCAGGA
  switch fluorescence ratio: 1.07

## TGTGAGCCGA
  switch fluorescence ratio: 0.965

## ATTGGACCAA
  switch fluorescence ratio: 1.05

## TATCAGAGG
  switch fluorescence ratio: 0.985

## ATGGTCTGGA
  switch fluorescence ratio: 1.03

## GATGGAATGT
  switch fluorescence ratio: 1.01

## CGTATCCGAT
  switch fluorescence ratio: 1.02

## AGTATTCGTT
  switch fluorescence ratio: 0.979

## GAGCTATCCG
  switch fluorescence ratio: 1

## TTCACTTTTA
  switch fluorescence ratio: 1.01

## CTGTGTTTCT
  switch fluorescence ratio: 0.992

## GGAAAAGGAG
  switch fluorescence ratio: 0.996

## AAGGCCGGCC
  switch fluorescence ratio: 1.09

## ATTTGCAGA
  switch fluorescence ratio: 0.945

## GAAGAGATGA
  switch fluorescence ratio: 1.04

## CTAGGGGTCC
  switch fluorescence ratio: 1.02

## GCCAAACCAG
  switch fluorescence ratio: 0.958

## CGTTGGTAGG
  switch fluorescence ratio: 1.17

## GTCGCAACGG
  switch fluorescence ratio: 0.991

## TACACGGGTG
  switch fluorescence ratio: 1.3

## AGCAGCGTCT
  switch fluorescence ratio: 0.81

## ACAAAGGACT
  switch fluorescence ratio: 0.994

## ACGAGTCAGG
  switch fluorescence ratio: 1.33

## TCGGTATAGA
  switch fluorescence ratio: 1.01

## GTAATCGTAC
  switch fluorescence ratio: 1.12

## GATGCGCCAG
  switch fluorescence ratio: 0.972

## AGCTTGCGAA
  switch fluorescence ratio: 1.05

## GTATTTCAAG
  switch fluorescence ratio: 0.966

## GCGGTGTCAA
  switch fluorescence ratio: 0.996

## GCCCAAGCT
  switch fluorescence ratio: 1.03

## CCATACCAAT
  switch fluorescence ratio: 1.39

## TCAAGTCGAT
  switch fluorescence ratio: 0.988

## GGCTCGTCAT
  switch fluorescence ratio: 0.968

## GCCCCGGTAT
  switch fluorescence ratio: 1.01

## CGCCCAGAT
  switch fluorescence ratio: 1.03

## GGCGTCAAAC
  switch fluorescence ratio: 0.991

## ACACGCTACG
  switch fluorescence ratio: 1.53

## TTCAGGCTGG
  switch fluorescence ratio: 0.983

## GTCCATGGAT
  switch fluorescence ratio: 0.993

## GACGTTCCTC
  switch fluorescence ratio: 2.14

## AGCGGATCCG
  switch fluorescence ratio: 0.999

## CTCTCCATTC
  switch fluorescence ratio: 1.24

## AATTTAGATG
  switch fluorescence ratio: 1.07

## AAATCTATGT
  switch fluorescence ratio: 0.994

## GCAGTAGGAT
  switch fluorescence ratio: 0.982

## TATCAGCGTT
  switch fluorescence ratio: 0.975

## ACAACTAGAC
  switch fluorescence ratio: 1.04

## TGACATAGAT
  switch fluorescence ratio: 1

## GTTCCGGTGG
  switch fluorescence ratio: 0.982

## CCAAAAGACG
  switch fluorescence ratio: 1.01

## GATCCCGACG
  switch fluorescence ratio: 1.13

## TCCAGGTAGG
  switch fluorescence ratio: 1.13

## TCGAATATAT
  switch fluorescence ratio: 0.967

## CGGAAAGTAA
  switch fluorescence ratio: 1

## TTCGAACTTC
  switch fluorescence ratio: 1

## AATGAATAA
  switch fluorescence ratio: 1

## AGAGAGTCCA
  switch fluorescence ratio: 0.993

## AAGTTATGAT
  switch fluorescence ratio: 1.01

## AGGAAAATTG
  switch fluorescence ratio: 1.01

## ATAATCCATC
  switch fluorescence ratio: 0.977

## GATCAGTATT
  switch fluorescence ratio: 0.995

## TGTCGATATA
  switch fluorescence ratio: 1.02

## ATCCACCTTG
  switch fluorescence ratio: 1.03

## TGAGTCTAGT
  switch fluorescence ratio: 1.04

## CAATGACATT
  switch fluorescence ratio: 1.03
